Experimental data from publication PMC5892938.
Some of the results follow. The source does not settle which construct or isoform was used.

What follows are sequences tested against GST-SBP-ILF3 (Homo sapiens) (UniProt Q12906) (assay: targeted RNA Bind-n-Seq). Settings: RBNS binding buffer: 25 mM Tris pH 7.5, 150 mM KCl, 3 mM MgCl2, 0.1% Tween, 0.5 mg/mL BSA, 1 mM DTT; 27 nM protein, 750 pM RNA pool; temperature not stated; high values mean tight binding; sequences stand for … in GGGUAAAAGCGAGGUGAA…CGGGACAAGUAUUAUGGG.

| Sequence | binding signal (log2 fold change) |
| --- | --- |
| UUUUUUUUUUGAGAGGGGACCCCUCUCCGG [tttttgagapaired] | 0.782 |
| UUUUUUUUUUGAGACCGAAACGGUCUUCUG [tttttgagapaired] | 0.4 |
| UUCUCCUCUCCUCCGCCGGAGGGGAGGGGA [ctspaired] | -0.643 |
| UUUUUUUUUUGAGAGGGUGUCCCUCUCCAG [tttttgagapaired] | 0.678 |
| GGUGUGUGUGUUGGAUUCUAACACAUACGC [gtspaired] | -0.994 |
| GUGUGGUGUGUUGGUAUCUAACACAUCACG [gtspaired] | -0.668 |
| UUUUUUUUUUGAGAGGGCUUCCCUCUUCUA [tttttgagapaired] | 0.381 |
| GUGUGUGGUGUUGGUGCCUAACACCAUACA [gtspaired] | -0.327 |
| UUUUUUUUUUGAGAGGGAACCCUUCUCCAG [tttttgagapaired] | 0.0431 |
| UUUUUUUUUUGAGAUGGGAUCCAUUUCCUA [tttttgagapaired] | 0.0625 |
| GUGUGUUGUGUUGGUAUCUAACACAACGCA [gtspaired] | -0.328 |
| GUUGUGUGUGUUGGAGUCUAACACACGCAG [gtspaired] | -0.593 |
| UUCUCUCUUCCUCCAUUGGAGGAGGAGGGA [ctspaired] | 0.14 |
| GGUUGUGGUGUUGGCUUCUAACACCGCAGC [gtspaired] | -0.573 |
| UUUUUUUUUUGAGAUGGUAACUAUCUCCGG [tttttgagapaired] | 0.253 |
| UUUUUUUUUUGAGAUGGAAACCAUCUCCUA [tttttgagapaired] | -0.22 |
| UUUUUUUUUUGAGAGGGGGCCCCUUUCCAG [tttttgagapaired] | 0.547 |
| UUUUUUUUUUGAGAUCGGUGCGAUCUCCAG [tttttgagapaired] | 0.354 |
| GUGUGUGGUGUUGGAUUCUAACACCGCGCG [gtspaired] | -0.697 |
| UUUUUUUUUUGAGAUGGGCCCCAUCUCCUA [tttttgagapaired] | 0.751 |
| GGUGGUGGUGUUGGAUCCUAACACCAUCGC [gtspaired] | -0.422 |
| UUUUUUUUUUGAGACUGAAGCAGUCUCCGG [tttttgagapaired] | 0.445 |
| UUUUUUUUUUGAGAGGGCGCCCCUCUCCGG [tttttgagapaired] | 0.687 |
| UUUUUUUUUUGAGAGGGACUCCUUCUCCGG [tttttgagapaired] | 0.101 |
| GUGUGUGGUGUUGGAAUCUAACACCGCGCG [gtspaired] | -0.795 |
| UUUUUUUUUUGAGAUCGACGCGAUCUUCUA [tttttgagapaired] | 0.357 |

| Sequence | binding signal (log2 fold change) |
| --- | --- |
| GUGUGGUGUGUUGGCUUCUAACACAUCACA [gtspaired] | -0.595 |
| GUGUGGUGUGUUGGUAUCUAACACACCGCG [gtspaired] | -0.0391 |
| UUUUUUUUUUGAGAGCGAUCCGCUCUCCAG [tttttgagapaired] | 0.227 |
| UUUUUUUUUUGAGAUGGACGCCAUCUCCAG [tttttgagapaired] | 0.533 |
| UUUUUUUUUUGAGACUGUGUCAGUCUCCAG [tttttgagapaired] | 0.557 |
| UUUUUUUUUUGAGACCGGAUCGGUCUCCUG [tttttgagapaired] | 0.417 |
| UUUUUUUUUUGAGACGGCGGCCGUUUCCUG [tttttgagapaired] | 0.911 |
| GGUGGUGGUGUUGGUGCCUAACACCGCUAC [gtspaired] | -0.436 |
| GUGGUGUGUGUUGGACCCUAACACACACUA [gtspaired] | 0.189 |
| UUUUUUUUUUGAGACCGAGUCGGUUUCCUG [tttttgagapaired] | 0.866 |
| GUGUGGUGUGUUGGUCUCUAACACACUACG [gtspaired] | -0.844 |
| GUGGUUGGUGUUGGUAUCUAACACCAGCCG [gtspaired] | -0.581 |
| UUUUUUUUUUGAGAUGGGCACUAUCUCCUG [tttttgagapaired] | 0.686 |
| GUGGUUGGUGUUGGCGCCUAACACCAGCCG [gtspaired] | -0.426 |
| UUUUUUUUUUGAGAUCGAAGCGAUCUCCGG [tttttgagapaired] | 0.166 |
| UUUUUUUUUUGAGACGGCGACUGUCUCCUA [tttttgagapaired] | 1.01 |
| UUUUUUUUUUGAGAACGGACCGUUCUCCGG [tttttgagapaired] | 0.532 |
| UUUUUUUUUUGAGACCGGAACGGUCUCCUG [tttttgagapaired] | 0.142 |
| GGUUGUUGUGUUGGCAUCUAACACAGCAAC [gtspaired] | -0.533 |
| UUUUUUUUUUGAGACUGCAACAGUCUUCUA [tttttgagapaired] | 0.182 |
| UUUUUUUUUUGAGACUGCUGCAGUCUCCAG [tttttgagapaired] | 0.661 |
| UUUUUUUUUUGAGAUGGGCUCCAUCUCCUA [tttttgagapaired] | 0.445 |
| GUGGUGUGUGUUGGACUCUAACACACGCCG [gtspaired] | -0.608 |
| UUUUUUUUUUGAGACCGGAUCGGUUUCCUA [tttttgagapaired] | 0.598 |
| UUUUUUUUUUGAGAGCGAGUCGUUCUCCGG [tttttgagapaired] | 0.144 |
| UUUUUUUUUUGAGACUGAAGCAGUCUUCUA [tttttgagapaired] | 0.0841 |

| Sequence | binding signal (log2 fold change) |
| --- | --- |
| GUGGUGUGUGUUGGAUCCUAACACAUACUA [gtspaired] | -0.73 |
| UUUUUUUUUUGAGACGGGGGCCGUCUCCUG [tttttgagapaired] | 0.936 |
| UUUUUUUUUUGAGAUGGCAGCUAUCUCCAG [tttttgagapaired] | 0.55 |
| UUUUUUUUUUGAGACGGGGUCCGUCUUCUA [tttttgagapaired] | 0.919 |
| UUUUUUUUUUGAGAGCGAAGCGCUCUUCUA [tttttgagapaired] | 0.197 |
| UUUUUUUUUUGAGAGCGAGCCGCUCUCCUG [tttttgagapaired] | 0.201 |
| UUUUUUUUUUGAGACGGUGACCGUCUCCUA [tttttgagapaired] | 0.399 |
| UUUUUUUUUUGAGAUCGAAACGAUCUCCAG [tttttgagapaired] | 0.164 |
| GUGUGGUGUGUUGGUCCCUAACACACUACA [gtspaired] | 0.085 |
| UUUUUUUUUUGAGACCGCGACGGUCUCCUA [tttttgagapaired] | 0.382 |
| UUUUUUUUUUGAGAGGGGAUCCCUCUUCUA [tttttgagapaired] | 0.424 |
| UUUUUUUUUUGAGAUCGAAACGAUUUCCGG [tttttgagapaired] | 0.0288 |
| UUUUUUUUUUGAGAGCGAAGCGUUCUUCUA [tttttgagapaired] | -0.0844 |
| GUGGUGUGUGUUGGCCCCUAACACACAUCA [gtspaired] | -0.211 |
| UUUUUUUUUUGAGAUGGAACCCAUCUCCGG [tttttgagapaired] | 0.0347 |
| UUUUUUUUUUGAGAUCGACACGAUCUCCUA [tttttgagapaired] | 0.132 |
| GGUUGGUGUGUUGGAUUCUAACACAUCAGC [gtspaired] | -0.143 |
| UUUUUUUUUUGAGAUGGCAACCAUUUCCGG [tttttgagapaired] | 0.603 |
| UUUUUUUUUUGAGACGGUUUCCGUCUCCUG [tttttgagapaired] | 0.435 |
| UUUUUUUUUUGAGAUGGGAUCCGUCUCCAG [tttttgagapaired] | 0.386 |
| UUUUUUUUUUGAGAUGGAUCCCAUUUCCAG [tttttgagapaired] | 0.302 |
| GUUGGUGGUGUUGGACUCUAACACCGCCAG [gtspaired] | -0.332 |
| UUUUUUUUUUGAGAGGGUGACCCUCUCCAG [tttttgagapaired] | 0.446 |
| UUUUUUUUUUGAGACCGGGGCGGUUUUCUA [tttttgagapaired] | 0.564 |
| GGUUGGUGUGUUGGCCCCUAACACAUCAGC [gtspaired] | -0.0342 |
| UUUUUUUUUUGAGAUCGUCACGAUCUCCAG [tttttgagapaired] | 0.159 |

| Sequence | binding signal (log2 fold change) |
| --- | --- |
| GUGUGUGGUGUUGGCGUCUAACACCGCACA [gtspaired] | -0.353 |
| UUUUUUUUUUGAGAUGGUGGCCAUCUCCGG [tttttgagapaired] | 0.693 |
| UUUUUUUUUUGAGAUGGGUCCCAUCUCCUG [tttttgagapaired] | 0.984 |
| UUUUUUUUUUGAGACGGAUACCGUUUCCAG [tttttgagapaired] | 0.435 |
| UUUUUUUUUUGAGAGGGGUGCCCUUUCCAG [tttttgagapaired] | 0.657 |
| GGUGGUGGUGUUGGUCUCUAACACCGCUAC [gtspaired] | -0.403 |
| UUUUUUUUUUGAGACUGGGGCAGUCUUCUA [tttttgagapaired] | 0.658 |
| GUUGGUGGUGUUGGCCCCUAACACCGCCGA [gtspaired] | -0.0133 |
| UUUUUUUUUUGAGAUGGGAUCCAUCUCCAG [tttttgagapaired] | -0.0306 |
| GGUUGUGGUGUUGGAAUCUAACACCGCAGC [gtspaired] | -0.687 |
| UUUUUUUUUUGAGAGUGAAGCACUCUCCAG [tttttgagapaired] | 0.145 |
| UUUUUUUUUUGAGAGCGUAUCGUUCUCCGG [tttttgagapaired] | 0.149 |
| UUUUUUUUUUGAGAGGGAGACCCUCUCCUG [tttttgagapaired] | 0.393 |
| UUUUUUUUUUGAGAGCGUUCCGCUCUUCUA [tttttgagapaired] | 0.655 |
| UUUUUUUUUUGAGACGGGGGCCGUCUCCUA [tttttgagapaired] | 0.772 |
| GUGUGGUGUGUUGGCGUCUAACACAUCGCG [gtspaired] | -0.75 |
| UUUUUUUUUUGAGAGGGAAACCCUCUCCUA [tttttgagapaired] | 0.409 |
| UUUUUUUUUUGAGACUGACACAGUUUCCAG [tttttgagapaired] | 0.163 |
| GUGGUGUGUGUUGGAACCUAACACAUACCG [gtspaired] | -0.731 |
| UUUUUUUUUUGAGACUGAGUCAGUUUCCUG [tttttgagapaired] | 0.652 |
| UUUUUUUUUUGAGACGGAUUCCGUUUCCUA [tttttgagapaired] | 0.0924 |
| GUGUGUUGUGUUGGUCUCUAACACAGCGCA [gtspaired] | -0.684 |
| UUUUUUUUUUGAGACGGAUGCCGUUUCCUA [tttttgagapaired] | 0.492 |
| UUUUUUUUUUGAGAGUGUUGCAUUCUCCGG [tttttgagapaired] | 0.256 |
